# The supplement of paper PMC8728848
# This is one part of the list.
# B1: B1257 (Bifidobacterium sp) (protein)
# chain: MKKSIRLVAAIAALAMTAGISACGSSTNGNQAKSDVTAQDVETALTDTSKNVELTVWAYSAKQMEPTVKAFEKKYPHIKINFVNTGAAGDHFTKFQNVVQAQKDIPDVVQMGANKFQQFAVSGALLNFANDSIEKAWSKLYTKTAWAQVHYAGGLYGAPQDATPLANYVRKDILDEHNLQVPESWEDIYNEGIKLHKEDSNKYMGILGSDISFFTNLYRSVGARLWKVNSVDDVELTMNSGKAKEFTEFLQKCLKDGVLEGGTVFTDEFNRSINDGRYATFINENWMGNTYKEQNPSLKGKMVVAAPPSWKGQPYQSSSVGSMMSVSAACPKEKQAAALAFINWLDSDKDAIQSWQDTNNGNFFMAASVYQDDENQRNKKETDGYYANDDVNAVYFDSMDKVNTDWEYLPFMSQVEVVFNDVIVPQMNENGDLVGAMAKAQQELKTYAKDNGFKVTTDAD
# What was measured:
# Experiment in all cases: glycan array binding signal (z-score within array); higher = stronger binding
# Details in all cases: glycan notation: IUPAC condensed, linker removed
# [1] = target: GlcNAc(b1-3)Gal(b1-4)GlcNAc(b1-3)Gal(b1-4)GlcNAc(b1-3)GalNAc
# Summary of the method: (§1)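 The Consortium for Functional Glycomics database supplied 3228 glycan arrays, of which those lacking an available protein sequence were dropped. The binding signal, a within-array Z-score, was averaged across arrays of the same protein sequence and across linkers. Negative scores can be read as non-binding.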
# [2] = target: GlcNAc(b1-3)Gal(b1-4)GlcNAc(b1-3)GalNAc
# Summary of the method: as §1
# [3] = target: GlcNAc(b1-3)Gal(b1-4)GlcNAc(b1-3)[GlcNAc(b1-3)Gal(b1-4)GlcNAc(b1-3)]GalNAc
# Summary of the method: as §1
# [4] = target: GlcNAc(b1-3)Gal(b1-4)GlcNAc(b1-6)[Gal(b1-3)]GalNAc
# Summary of the method: as §1
# [5] = target: GlcNAc(b1-3)Gal(b1-4)GlcNAc(b1-6)[GlcNAc(b1-3)Gal(b1-3)]GalNAc
# Summary of the method: as §1
# [6] = target: GlcNAc(b1-3)Gal(b1-4)GlcNAc(b1-6)[GlcNAc(b1-3)]Gal(b1-4)GlcNAc
# Summary of the method: as §1
# GlcNAc(b1-3)GalNAc = target: GlcNAc(b1-3)GalNAc
# Summary of the method: as §1
# GlcNAc(b1-3)Man = target: GlcNAc(b1-3)Man
# Summary of the method: as §1
# [7] = target: GlcNAc(b1-3)[GlcNAc(b1-4)][GlcNAc(b1-6)]GlcNAc
# Summary of the method: as §1
# [8] = target: GlcNAc(b1-3)[GlcNAc(b1-6)]Gal(b1-4)GlcNAc
# Summary of the method: as §1
# [9] = target: GlcNAc(b1-3)[GlcNAc(b1-6)]GalNAc
# Summary of the method: as §1
# [10] = target: GlcNAc(b1-4)Gal(b1-4)GlcNAc
# Summary of the method: as §1
# GlcNAc(b1-4)GlcNAc = target: GlcNAc(b1-4)GlcNAc
# Summary of the method: as §1
# [11] = target: GlcNAc(b1-4)GlcNAc(b1-4)GlcNAc
# Summary of the method: as §1
# [12] = target: GlcNAc(b1-4)GlcNAc(b1-4)GlcNAc(b1-4)GlcNAc(b1-4)GlcNAc
# Summary of the method: as §1
# [13] = target: GlcNAc(b1-4)GlcNAc(b1-4)GlcNAc(b1-4)GlcNAc(b1-4)GlcNAc(b1-4)GlcNAc
# Summary of the method: as §1
# [14] = target: GlcNAc(b1-4)[GlcNAc(b1-6)]GalNAc
# Summary of the method: as §1
# [15] = target: GlcNAc(b1-6)Gal(b1-4)GlcNAc
# Summary of the method: as §1
# GlcNAc(b1-6)GalNAc = target: GlcNAc(b1-6)GalNAc
# Summary of the method: as §1
# [16] = target: GlcNAc6S(b1-3)Gal(b1-4)GlcNAc
# Summary of the method: as §1
# Kdn(a2-3)Gal(b1-3)GalNAc = target: Kdn(a2-3)Gal(b1-3)GalNAc
# Summary of the method: as §1
# Kdn(a2-3)Gal(b1-3)GlcNAc = target: Kdn(a2-3)Gal(b1-3)GlcNAc
# Summary of the method: as §1
# Kdn(a2-3)Gal(b1-4)Glc = target: Kdn(a2-3)Gal(b1-4)Glc
# Summary of the method: as §1
# Kdn(a2-3)Gal(b1-4)GlcNAc = target: Kdn(a2-3)Gal(b1-4)GlcNAc
# Summary of the method: as §1
# [17] = target: Kdn(a2-3)Gal(b1-4)[Fuc(a1-3)]GlcNAc
# Summary of the method: as §1
# Kdn(a2-6)Gal(b1-4)GlcNAc = target: Kdn(a2-6)Gal(b1-4)GlcNAc
# Summary of the method: as §1
# [18] = target: Man(a1-2)Man(a1-2)Man(a1-3)Man
# Summary of the method: as §1
# [19] = target: Man(a1-2)Man(a1-2)Man(a1-6)[Man(a1-3)]Man
# Summary of the method: as §1
# Man(a1-2)Man(a1-3)Man = target: Man(a1-2)Man(a1-3)Man
# Summary of the method: as §1
# [20] = target: Man(a1-2)Man(a1-3)[Man(a1-2)Man(a1-6)]Man
# Summary of the method: as §1
# [21] = target: Man(a1-2)Man(a1-3)[Man(a1-2)Man(a1-6)]Man(a1-6)[Man(a1-2)Man(a1-2)Man(a1-3)]Man
# Summary of the method: as §1
# [22] = target: Man(a1-2)Man(a1-3)[Man(a1-2)Man(a1-6)]Man(a1-6)[Man(a1-2)Man(a1-2)Man(a1-3)]Man(b1-4)GlcNAc(b1-4)GlcNAc
# Summary of the method: as §1
# [23] = target: Man(a1-2)Man(a1-3)[Man(a1-6)]Man(a1-6)[Man(a1-2)Man(a1-3)]Man(b1-4)GlcNAc(b1-4)GlcNAc
# Summary of the method: as §1
# [24] = target: Man(a1-2)Man(a1-6)[Man(a1-3)]Man(a1-6)[Man(a1-2)Man(a1-2)Man(a1-3)]Man
# Summary of the method: as §1
# [25] = target: Man(a1-2)Man(a1-6)[Man(a1-3)]Man(a1-6)[Man(a1-2)Man(a1-2)Man(a1-3)]Man(b1-4)GlcNAc(b1-4)GlcNAc
# Summary of the method: as §1
# Man(a1-3)[Man(a1-6)]Man = target: Man(a1-3)[Man(a1-6)]Man
# Summary of the method: as §1
# [26] = target: Man(a1-3)[Man(a1-6)]Man(a1-6)[Man(a1-2)Man(a1-3)]Man(b1-4)GlcNAc(b1-4)GlcNAc
# Summary of the method: as §1
binder,measurement,setting,value
B1,glycan array binding signal (z-score),[1],-0.009
same,glycan array binding signal (z-score),[2],-0.148
same,glycan array binding signal (z-score),[3],-0.093
same,glycan array binding signal (z-score),[4],-0.09
same,glycan array binding signal (z-score),[5],-0.05
same,glycan array binding signal (z-score),[6],-0.168
same,glycan array binding signal (z-score),GlcNAc(b1-3)GalNAc,-0.107
same,glycan array binding signal (z-score),GlcNAc(b1-3)Man,-0.145
same,glycan array binding signal (z-score),[7],-0.13
same,glycan array binding signal (z-score),[8],-0.073
same,glycan array binding signal (z-score),[9],-0.055
same,glycan array binding signal (z-score),[10],-0.122
same,glycan array binding signal (z-score),GlcNAc(b1-4)GlcNAc,-0.063
same,glycan array binding signal (z-score),[11],0.013
same,glycan array binding signal (z-score),[12],-0.087
same,glycan array binding signal (z-score),[13],-0.132
same,glycan array binding signal (z-score),[14],-0.196
same,glycan array binding signal (z-score),[15],-0.018
same,glycan array binding signal (z-score),GlcNAc(b1-6)GalNAc,-0.108
same,glycan array binding signal (z-score),[16],-0.084
same,glycan array binding signal (z-score),Kdn(a2-3)Gal(b1-3)GalNAc,-0.035
same,glycan array binding signal (z-score),Kdn(a2-3)Gal(b1-3)GlcNAc,-0.055
same,glycan array binding signal (z-score),Kdn(a2-3)Gal(b1-4)Glc,-0.155
same,glycan array binding signal (z-score),Kdn(a2-3)Gal(b1-4)GlcNAc,-0.061
same,glycan array binding signal (z-score),[17],-0.11
same,glycan array binding signal (z-score),Kdn(a2-6)Gal(b1-4)GlcNAc,-0.141
same,glycan array binding signal (z-score),[18],-0.128
same,glycan array binding signal (z-score),[19],-0.126
same,glycan array binding signal (z-score),Man(a1-2)Man(a1-3)Man,-0.171
same,glycan array binding signal (z-score),[20],-0.167
same,glycan array binding signal (z-score),[21],-0.108
same,glycan array binding signal (z-score),[22],-0.146
same,glycan array binding signal (z-score),[23],-0.161
same,glycan array binding signal (z-score),[24],-0.138
same,glycan array binding signal (z-score),[25],-0.04
same,glycan array binding signal (z-score),Man(a1-3)[Man(a1-6)]Man,-0.152
same,glycan array binding signal (z-score),[26],-0.011
